# In all, about 420,000 compounds went through this assay and about 50,000 (12%) were called active. The shares of active, inactive and inconclusive entries below differ from those in the screen. The call rests on the fitted dose curve; in most records, active means well fitted inhibition curve with a large enough effect; inconclusive means small, poorly fitted or top-dose-only effect; inactive means flat fitted curve, though single readings scatter. Potencies of inconclusive entries are left out as doubtful fits.
# Assay: qHTS for Inhibitors of human tyrosyl-DNA phosphodiesterase 1 (TDP1): qHTS in cells in presence of CPT; further: nearly all actives have a fitted effect of over 55% in size
# Settings: chicken DT40 Tdp1-/-;hTDP1 cells + 20 nM CPT, ATP luminescence, 48 h; series mostly up to 46.2 µM
# Outline: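 Chicken DT40 Tdp1-/- cells stably complemented with human TDP1 were seeded at 400 cells/well in medium containing 20 nM camptothecin, exposed to pin-transferred compounds, and grown at 37 °C for at least 48 hr. Viability was read as ATP luminescence.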
# Potency means the concentration at half of the fitted maximal effect; tags describe the fitted curve by direction and shape.
row,Compound,Potency
1,Cc1ccc(N2CC(c3nnc(NC(=O)c4ccco4)s3)CC2=O)cc1C (centres undefined),"inconclusive [inhibitor, partial curve]"
2,N#Cc1nc(-c2ccccc2Cl)oc1N1CCOCC1,"inconclusive [inhibitor, partial curve, poor fit]"
3,COCCCN1C(=O)c2[nH]nc(-c3cc(C)cc(C)c3O)c2C1c1ccc(O)c(OC)c1 (centres undefined),active: 20.6 µM
4,CN(C)CC(CCC(CN(C)C)C(O)(c1ccccc1)c1ccccc1)C(O)(c1ccccc1)c1ccccc1 (centres undefined),active: 23.1 µM
5,CNC(=O)c1cc(C(=O)c2c(Cl)cccc2Cl)c[nH]1,inactive
6,CCc1ccc(Nc2ncc3c(n2)CC(C)(C)CC3=O)cc1,inactive
7,Cc1cn(CC2COC(C)(C)O2)c(=O)[nH]c1=O (centres undefined),"inconclusive [inhibitor, single point]"
8,CC(C)CCNC(=S)Nc1ccc([N+](=O)[O-])cc1,"inconclusive [inhibitor, single point]"
9,Cc1cc(C)nc(NS(=O)(=O)c2ccc(NC(=S)NC(=O)C(C)(C)C)cc2)n1,inactive
10,CC(C)C[C@H]1CN([C@@H](CC(C)C)CN2CCC[C@@H]2CN2C(=O)C(=O)NC[C@@H]2Cc2ccccc2)C(=O)C(=O)N1CCc1ccccc1,"inconclusive [inhibitor, single point]"
11,COc1ccc(-n2cc(C(=O)NC(C)c3ccccc3)c3ccccc3c2=O)cc1 (centres undefined),active: 18.4 µM
12,O=C1NC(Cc2ccc(O)cc2)c2nc3ccc(F)cc3c(=O)n2-c2ncccc21 (centres undefined),inactive
13,N#CCC(=O)Nc1ccc(C(=O)OC(C(=O)Nc2ccc([N+](=O)[O-])cc2Br)c2ccccc2)cc1 (centres undefined),"inconclusive [inhibitor, single point]"
14,CCOC(=O)c1ccc(-c2c(C(=O)OCC)oc3cc(O)c(CC)cc3c2=O)o1,active: 14.6 µM
15,O=C(NC1CCCC1)c1ccc(CSc2nc3ccncc3n2Cc2ccc(F)cc2)cc1,"inconclusive [inhibitor, single point]"
16,Cc1ccccc1C(=O)Nc1ccc2nc3n(c(=O)c2c1)CCC3,inactive
17,COC(=O)C1=C(C(=O)OC)[C@@H]2N(C)c3ccccc3[C@@]23C[C@@H](C(=O)OC)N(C(=O)COCc2ccccc2)C3=N1,"inconclusive [inhibitor, partial curve, poor fit]"
18,CSc1nc(Cl)c(Cc2ccc(OC(C)C)cc2)c(N(C)C)n1,"inconclusive [inhibitor, single point]"
19,COc1ccc(S(=O)(=O)N2CCCC(N(C)CCc3ccccc3)C2)cc1OC (centres undefined),"inconclusive [inhibitor, single point]"
20,Cc1n[nH]c(=S)n1/N=C/c1ccc(-c2ccccc2[N+](=O)[O-])o1,inactive
21,CC(NC(=O)c1ccc(N(C)C)c([N+](=O)[O-])c1)c1ccc(-n2ccnc2)cc1 (centres undefined),"inconclusive [inhibitor, single point]"
22,Cc1onc(-c2c(Cl)cccc2Cl)c1C(=O)N=C(N)N1CCCC1,"inconclusive [inhibitor, partial curve]"
23,COC(=O)[C@]12CCCCC=C1N(CCc1ccc(OC)c(OC)c1)C(=O)[C@H](CC(=O)NCCC(C)C)C2,"inconclusive [inhibitor, full curve, poor fit]"

row,Compound,Potency
1,CC1(C)CC(CCN)(Cc2ccccc2Cl)CCO1 (centres undefined),"inconclusive [inhibitor, single point]"
2,COc1ccc(NC(=O)COC(=O)CN2C(=O)C3CCCCC3C2=O)cc1 (centres undefined),inactive
3,Cc1ccc(NC(=O)Cn2cc(S(=O)(=O)N3CCCC3)c(S(=O)(=O)N3CCCC3)c2)cc1C,"inconclusive [inhibitor, single point]"
4,Cc1sc2ncn(CC(=O)N3CCN(c4ccccc4)CC3)c(=O)c2c1S(=O)(=O)N1CCOCC1,inactive
5,O=C(C1CCCCC1)N1C[C@@H](O)[C@H](n2cc(-c3ccc(F)cc3)nn2)C[C@@H]1c1ccccc1,"inconclusive [inhibitor, partial curve, poor fit]"
6,CCn1nc(C)c(CNC(=O)CC2C(=O)NCCN2CC(C)C)c1C (centres undefined),inactive
7,O=C(Nc1nc2c(s1)CCCC2)c1cc(-c2ccccc2)nc2ccccc12,"inconclusive [inhibitor, single point]"
8,Cc1ccccc1NC(=O)CN1C(=O)N/C(=C\c2ccc(N3CCOCC3)c(F)c2)C1=O,inactive
9,COc1ccc(CN(CCc2ccccc2)Cc2ccccc2)cc1OC,"inconclusive [inhibitor, single point]"
10,CCC(=O)N(Cc1cc2cc(OC)ccc2[nH]c1=O)c1cccc(C)c1,inactive
11,O=C(CN1C(=O)C2C3CCC(C3)C2C1=O)OCC(=O)c1cccc([N+](=O)[O-])c1 (centres undefined),"inconclusive [inhibitor, single point]"
12,CCOC(=O)c1c(C)[nH]c2cc(Br)c(OC)cc12,inactive
13,CCOc1ccc(NC(=O)c2ccc(-c3cccc(Cl)c3C)o2)cc1,"inconclusive [inhibitor, single point]"
14,COc1ccccc1N1CCN(C(=O)c2cc(S(=O)(=O)N3CCOCC3)ccc2C)CC1,"inconclusive [inhibitor, single point]"
15,N=C1c2ccccc2CN1NC(=O)CC12CC3CC(CC(C3)C1)C2,"inconclusive [inhibitor, single point]"
16,Cc1cccc(C2C=C(c3ccc(F)cc3)Nc3nc4ccccc4n32)c1 (centres undefined),"inconclusive [inhibitor, single point]"
17,CCOC(=O)c1cnc2c(ccc3ccccc32)c1Nc1ccc(OC)c(OC)c1,active: 4.61 µM
18,O=C(O)CCC(=O)N1N=C(c2ccccc2)CC1c1ccc2c(c1)OCO2 (centres undefined),inactive
19,COc1ccc2oc(C(=O)OCC(=O)N3CCCC(C)C3)c(C)c2c1 (centres undefined),inactive
20,c1ccc(CCNc2cc(-c3ccc4ccccc4c3)nc3ccnn23)nc1,"inconclusive [inhibitor, partial curve, poor fit]"
21,Oc1ccc(-c2cnc3c(Nc4cccc(OC(F)(F)C(F)F)c4)nccn23)cc1,"inconclusive [inhibitor, single point]"
22,C=CCn1c(=O)c(C(=O)NCCNCC)c(O)c2ccccc21,"inconclusive [inhibitor, full curve, poor fit]"
23,O=c1c2cc3c(nc2ncn1Cc1ccccc1F)CCCC3,active: 18.4 µM

row,Compound,Potency
1,Cc1ccc(S(=O)(=O)N2CCCCC2)cc1NC(=O)COC(=O)Cc1c(F)cccc1Cl,"inconclusive [inhibitor, single point]"
2,CC1=C(C(=O)N2CCOCC2)CC(CC(=O)NCC2CCCCC2)C(=O)N1Cc1ccc(F)cc1 (centres undefined),"inconclusive [inhibitor, partial curve]"
3,CC(=O)Nc1cc(-c2ccc(C(=O)NC3CC3)cc2)cn2c(-c3cccc(C(F)(F)F)c3)cnc12,"inconclusive [inhibitor, single point]"
4,Cc1ccc(NC(=O)c2cccc(OCc3c(C)noc3C)c2)c(C)c1,inactive
5,Cc1[nH]c2ccccc2c1/C=C/c1nc2ccccc2c(=O)n1CCO,active: 6.51 µM
6,COc1ccc(NC(=O)CC2C(=O)N(c3ccc(Cl)cc3)C(=S)N2CCc2ccncc2)cc1 (centres undefined),"inconclusive [inhibitor, single point]"
7,CC(C)C(=O)Nc1oc(-c2ccccc2)cc1C#N,inactive
8,O=C(NCCCn1ccnc1)c1nn2c(C(F)(F)F)cc(-c3ccccc3)nc2c1Cl,inactive
9,CN(C(=O)CSc1nnnn1-c1ccccc1)C1CCS(=O)(=O)C1 (centres undefined),inactive
10,CCCCN(CC)CCCNC(=S)Nc1ccc2nc(N3CCN(C)CC3)cc(C)c2c1,"inconclusive [inhibitor, single point]"
11,C/C(=N/O)c1ccc(Oc2cnccn2)cc1,inactive
12,COc1ccc(C(=O)NCCSc2c(C)[nH]c3ccccc23)cc1,"inconclusive [inhibitor, single point]"
13,Cc1ccsc1/C=N/Nc1nc2ccccc2[nH]1,"inconclusive [inhibitor, single point]"
14,CN(C)c1ccc(CC(=O)N2CCCCC2c2cc(C(=O)Nc3ccccc3)no2)cc1 (centres undefined),active: 20.6 µM
15,Cc1c(C)c2cc(Cl)c(OC(C)C(=O)NCCN3CCOCC3)cc2oc1=O (centres undefined),"inconclusive [inhibitor, single point]"
16,Cc1ccc(CNCC(O)(c2ccccc2)c2ccccc2)cc1,"inconclusive [inhibitor, single point]"
17,C(=N\Nc1nc(N2CCCC2)nc(N2CCCC2)n1)/c1ccccc1OCc1ccccc1,"inconclusive [inhibitor, single point]"
18,Cc1cc2nc(C(C)(C)C)c(Cc3ccccc3)n2c(C)c1Br,"inconclusive [inhibitor, single point]"
19,C=CCn1c(SCC(=O)c2cc(C)n(CCOC)c2C)nc2sc(C)c(C)c2c1=O,"inconclusive [inhibitor, single point]"
20,NCC1O[C@@H](OC2C(N)CC(N)C(O)C2O[C@@H]2OC(CO)C(O)C2O)C(N)C(O)C1O (some centres undefined),inactive
21,CC(=O)CSc1ncnc2scc(-c3ccc(F)cc3)c12,inactive
22,CC1CCN(c2cc(C#N)c(C#N)cc2[N+](=O)[O-])CC1,inactive
23,CCOC(=O)N1CCN(C(=O)C2CCCN(c3nc4ccc(OCC)cc4s3)C2)CC1 (centres undefined),"inconclusive [inhibitor, single point]"

# Source: PubChem BioAssay AID686979 (National Center for Advancing Translational Sciences (NCATS), 2013)
